Paper PMC12136788
The list shows a part of the results.

T1: UNK ZnF1-3 (human, UniProt Q9C0B0 31-174)
T1 sequence: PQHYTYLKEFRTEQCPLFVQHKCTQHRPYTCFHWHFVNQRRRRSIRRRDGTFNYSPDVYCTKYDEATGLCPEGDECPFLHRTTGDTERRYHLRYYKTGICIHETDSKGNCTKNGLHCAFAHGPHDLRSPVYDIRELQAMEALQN

B1: chr11:77336104:77336105:-_ENSG00000074201_ENST00000525064|hu_mus|hu_hu_hu_mus_False|18_88 (ssRNA)
RNA: GGGAGUUCUACAGUCCGACGAUCCUCACACAUUGCUGUGAACAUCGCCUCCAACGCUGACUUAUCACUGGGCACAAAUCGAAAUUCAGAAAUGGGUUCAACAUCAUCAUUGUCUUCUUCCUCUUCUUCAGAGAGAGGUUCUUUCAACAGAGGAUUGAGCAUCA
B2: chr8:95500983:95500984:-_ENSG00000164944_ENST00000437199|hu_hu|hu_hu_hu_mus_True|68_88 (ssRNA)
RNA: GGGAGUUCUACAGUCCGACGAUCAGAACACAUCUAUCGAGUAAAGGGAGCGUACAUACGGCCUCUAACCACUGCCUCACUAACAAACUUUCCUCUCGAGCCUCCACUGCCGCUAUUUGUACUAGCCCAGGACGGUCCCAGGCCCAACAGAGGAUUGAGCAUCA
B3: chr8:27252840:27252841:+_ENSMUSG00000013878_ENSMUST00000014022|mus_mus|motif|central (ssRNA)
RNA: GGGAGUUCUACAGUCCGACGAUCCAUGUCACAGCCAUCAAAGACAACCAAAUCAGUAUGAACCUCAGUAGUUAGGCGUCGGAUACACAUUUCCUCAUUCUGCCCAAGGCACGAUGAAUCUGAGCCAAAUAAUGCCAUCUACAACAACAGAGGAUUGAGCAUCA
B4: chr14:21319760:21319761:-_ENSMUSG00000021816_ENSMUST00000161445|mus_mus|motif|central (ssRNA)
RNA: GGGAGUUCUACAGUCCGACGAUCAGCCAGCAGCAAAUCACCCUGGUGGUUUUUAAAGCAACUGGAGUACUCACAAUAAACGGAAAUUUCUCAUAAUAUCUACGUAACCUAUACAUGUUGUACCUGUACAUCAUAGGUCUAUAUCAACAGAGGAUUGAGCAUCA
B5: 18853758_18856852_6590_CDS_ENSG00000157106_ENST00000446231|human|control|control (ssRNA)
RNA: GGGAGUUCUACAGUCCGACGAUCUUGCAAACUUAGCAUUAUCUCUUUAAAUGGAAUCCAGCUGCUCCCAGGCUUUGCAGGGUUCAAUGGAGUCUUCAGUUUUUCUAGGGCAUUUUCAAUGGCAUCACCAUAGUUAUCCUGAAACAACAGAGGAUUGAGCAUCA
B6: chr7:127792870:127792871:+_ENSMUSG00000030884_ENSMUST00000033176|mus_mus|FALSE|FALSE (ssRNA)
RNA: GGGAGUUCUACAGUCCGACGAUCUGUGAAGUGGUUCUGAACAAAGUAAUGUAAUUCCUCUGAUGUUAUCUUCCCCAUCCUAUAGUCAGGACAGUACAAAGGAUUAGCCAAGGCAUUCUUGUAGGCAACAUCAUGCAAGUUCUCCAACAGAGGAUUGAGCAUCA
B7: chr1:220276048:220276049:+_ENSG00000067704_ENST00000302637|hu_hu|hu_hu_hu_mus_True|18_88 (ssRNA)
RNA: GGGAGUUCUACAGUCCGACGAUCGCAAAUUGCCUGGUUGGCGGGAAUCGUCCAAGGCUGGGUGGUCCAAACUAAAACGCUAACAGGGGAUGAGGCAUCUGUAAGAGACUCCAACUUUGGAGAAGGCCUCAGGAGGGGGAAUCUCAACAGAGGAUUGAGCAUCA
B8: chr4:41262718:41262719:+_ENSG00000154277_ENST00000284440|perfect_dup|motif|central (ssRNA)
RNA: GGGAGUUCUACAGUCCGACGAUCUCCGAUUGUGCCACAGGAAUUCCCAAUGGUCUGCUUCAUGAAGUACACUUUAGGACGGACUUCUUGUCCCUUCAGCUCUUCAAUCUGCUUUUUCCUGAAGUUCUCAUGCUGGGCCGUGAGCAACAGAGGAUUGAGCAUCA
B9: chr11:70266916:70266917:+_ENSMUSG00000018923_ENSMUST00000019067|mus_hu|FALSE|FALSE (ssRNA)
RNA: GGGAGUUCUACAGUCCGACGAUCGUAUGUCAGUUUCCAUCUCCUCUCUGAGCCUGUCAGGGUGUUUCUGGAGUGCAGAGCAGGAGCACCCUGCUGGAGAGGCCAAAGCAUAGCUGUGGGCAGGCUCGGGCUUCAGUUUUUCCACAACAGAGGAUUGAGCAUCA
B10: chr10:33190432:33190433:-_ENSG00000150093_ENST00000302278|hu_mus|hu_hu_hu_mus_True|18_28 (ssRNA)
RNA: GGGAGUUCUACAGUCCGACGAUCUACAUUUUCCAAACCUGCAUGUGAAUAAAACCCUGGCCACAGAGCCCCAAAACUACCCUACUGUGACUAAGAUGCUGCUGCUGUUGCAUUCAGUGUUGUGGGACCGCCUGAGUAGGAUUCCAACAGAGGAUUGAGCAUCA
B11: chr2:168009442:168009443:-_ENSMUSG00000051149_ENSMUST00000088001|mus_mus|FALSE|FALSE (ssRNA)
RNA: GGGAGUUCUACAGUCCGACGAUCGCGAUUACAGUAGAGGCAUUUGCUAGUAAAAUUGUGUAUUUUCAUAAUGUAGUUAGCUACGGCUGGGACUUUCUCAGCUUUAUGCUCCUUUUCGAAGUGAACGCUAUAGACAUUCUCAGGCAACAGAGGAUUGAGCAUCA
B12: chr4:76721835:76721836:+_ENSG00000138768_ENST00000264904|hu_mus|hu_hu_hu_mus_True|8_108 (ssRNA)
RNA: GGGAGUUCUACAGUCCGACGAUCGUUGGCUGGGGUUUUCUGAGACGCUCUGGAAUAUAACUCAUGUUUGCUAAUAAAUCCUAGUUUCUCUAUGAAAUUCUCUUUGCCAAUCCUCUUCUCUAUUAGUGUUUUAGCUUUCUCUUUCAACAGAGGAUUGAGCAUCA
B13: chr5:68661279:68661280:-_ENSG00000085231_ENST00000217893|hu_mus|motif|central (ssRNA)
RNA: GGGAGUUCUACAGUCCGACGAUCACCUGAAUAUGGCUUGAUCAGUGGCAAAGGGGUUUGAUUUCUUUGUCGUGCAAUAUCGGAUAAGAAAUCUCUCGGGGGUGGAGAAGUGAAAGACUGGUCAGCACGGCACUGGAUUGCCAGCAACAGAGGAUUGAGCAUCA
B14: chr8:42417948:42417949:+_ENSMUSG00000031592_ENSMUST00000045218|mus_mus|motif|central (ssRNA)
RNA: GGGAGUUCUACAGUCCGACGAUCUUCUAGUUACUAACAAUGUCUGAACUGUGUAUACAGUCUGAGUUAUUAACAUGUUCGGAGACCACUGAGAUUCAUCUGCUUUAUUCGCACACAAGAGCAGGAACUACAAGAACAUCAGACCAACAGAGGAUUGAGCAUCA
B15: chr17:60770872:60770873:+_ENSG00000011028_ENST00000303375|hu_hu|hu_hu_hu_mus_True|48_108 (ssRNA)
RNA: GGGAGUUCUACAGUCCGACGAUCUCUCUUUUCUUUUAAAAAAAAAGACAAACAAUAAUAGCACAUUUCGAGAAUCAAGAACUACAAAGAAAGGGCCGCUUUGAGUUUUUGUUCACAUCGUCCUGCACUGGGACACGGGGACUGCAACAGAGGAUUGAGCAUCA
B16: chr1:60041781:60041782:+_ENSMUSG00000041040_ENSMUST00000036540|mus_hu|mus_mus_mus_hu_False|48_58 (ssRNA)
RNA: GGGAGUUCUACAGUCCGACGAUCAAGUUUACAAUAGUAAAGUAAAUGCAGUAGUGGCAAAUUUUCUUUUAUUUUCCUUCCUAAAAGAAAACCUCAGUAACCCAGUCCUAGUCUUGGACAUAGUGAAAGCUAUAAAUUCUGACUCAACAGAGGAUUGAGCAUCA
B17: chr12:79975562:79975563:+_ENSMUSG00000021116_ENSMUST00000071230|mus_mus|motif|central (ssRNA)
RNA: GGGAGUUCUACAGUCCGACGAUCGAAUUUGUCCUCACAUUUGAUUGCUUCCUCUGGAGAAACUCUUCUUUUUGACAAAUCGGUAUAUCCUUUUUCUUUAUCCACUCUAAUGACAACAACACAUUCAUUUCUGCCAAUUCGGAUCAACAGAGGAUUGAGCAUCA
B18: chr1:163117127:163117128:-_ENSG00000143248_ENST00000313961|hu_mus|hu_hu_hu_mus_False|38_108 (ssRNA)
RNA: GGGAGUUCUACAGUCCGACGAUCUGCGGGUUAUUAUGUAACUCAACUCACAGGGCAACUUUUGGAAGCCUGACCAGAUGACUACUUGAUUAGCUCCUGAUAAAACUCAGAGCGCACAAAGCGGGGCAGAGAAUCCUUCUCCAUCAACAGAGGAUUGAGCAUCA
B19: chr4:57860909:57860910:+_ENSG00000047315_ENST00000314595|hu_mus|motif|central (ssRNA)
RNA: GGGAGUUCUACAGUCCGACGAUCAUCUGUUAAGCCAUUUAACAGGCAGUAGGUGGAGCGCAGCAUAAUUGGAAUUUUCCCGGUGAACGUUUUCUGGUGCUGAGUCUGCAGCUGUUCUUCACCUUCUUUAAUGACUGUCUUUGUCAACAGAGGAUUGAGCAUCA
B20: chr18:33747085:33747086:+_ENSG00000134759_ENST00000351393|hu_hu|motif|central (ssRNA)
RNA: GGGAGUUCUACAGUCCGACGAUCAGACCAAAUAAUUCUACUGUGCACAGAAGUAAUUUUGUUGGUGAAGGCAAAAAGACGGAAAACUGGCUCGAACUCAGGUGAGAUUGUAUCCUGCUUUUUCCACAAUGACCAGGUUCGAUCCAACAGAGGAUUGAGCAUCA
B21: chr16:94690093:94690094:+_ENSMUSG00000040785_ENSMUST00000117648|mus_hu|mus_mus_mus_hu_True|48_98 (ssRNA)
RNA: GGGAGUUCUACAGUCCGACGAUCGGGCUGGGAUGACAGCAGACAGCCCUCGAUUCCAGGGGGAAAAAGUCUUAGUCGAUACUAAUUUAAAAAGUAUAAUGAUUUUUGAAAAUCAGAUUACAUCUAUAAAAGAUGAAAAGCAAACAACAGAGGAUUGAGCAUCA
B22: chr5:145543945:145543946:-_ENSG00000133706_ENST00000545646|hu_hu|hu_hu_hu_mus_True|58_68 (ssRNA)
RNA: GGGAGUUCUACAGUCCGACGAUCCUGAACGGCCAGUGGUGGGAAAUAAUCAAGCCAGUGCUCUGCUUCAGAAAAUUUUACUAUCUCGUCAUCAGAGAGCCCAAGGGAUUUCAUAAUGUCCCACUGGUACUUAGAAGAUCCUGCCAACAGAGGAUUGAGCAUCA

target: T1, UNK ZnF1-3; test: nsRBNS (natural sequence RNA bind-n-seq); RBNS binding buffer (assumed for nsRBNS): 25 mM Tris pH 7.5, 150 mM KCl, 3 mM MgCl2, 0.01% Triton X-100, 500 ug/ml BSA, 20 U/ml SUPERase-In, 4 C; UNK is unkempt and MSI1 is Musashi-1; names of the RNAs are library labels; protein concentration not given here; high values mean tight binding

| Binder | binding signal |
| --- | --- |
| B1 | 0.997 enrichment R |
| B2 | 1.25 enrichment R |
| B3 | 1.2 enrichment R |
| B4 | 1.26 enrichment R |
| B5 | 1.01 enrichment R |
| B6 | 1.06 enrichment R |
| B7 | 2.21 enrichment R |
| B8 | 0.827 enrichment R |
| B9 | 0.718 enrichment R |
| B10 | 1.21 enrichment R |
| B11 | 1.09 enrichment R |
| B12 | 0.667 enrichment R |
| B13 | 1.14 enrichment R |
| B14 | 1.39 enrichment R |
| B15 | 1.23 enrichment R |
| B16 | 0.864 enrichment R |
| B17 | 0.69 enrichment R |
| B18 | 0.831 enrichment R |
| B19 | 0.599 enrichment R |
| B20 | 1.45 enrichment R |
| B21 | 1.47 enrichment R |
| B22 | 1.16 enrichment R |
